In PubChem BioAssay AID2147 (National Center for Advancing Translational Sciences (NCATS), 2009):
About 3,600 (1.6%) of roughly 230,000 compounds were called active. The inconclusive results got no clear call from the source; some entries with a clear call stand among them for comparison. The call rests on the fitted dose curve; in most records, active means well fitted inhibition curve with a large enough effect (not every such curve was filed as active); inconclusive means small, poorly fitted or top-dose-only effect, or another doubt; inactive means no such curve, though single readings can be large or run the other way. A potency beside an inconclusive call is a rough fit, not a confirmed value.

The molecules below were run against Lysine-specific demethylase 4E (Homo sapiens) (UniProt B2RXH2) (assay: qHTS Assay for Inhibitors of Human Jumonji Domain Containing 2E (JMJD2E)). Settings: JMJD2E catalytic domain, FDH-coupled NADH fluorescence (FDH is formaldehyde dehydrogenase); series mostly up to 57.1 µM.
UniProt B2RXH2, sequence (B2RXH2 whole entry, looked up, the tested form may be a part): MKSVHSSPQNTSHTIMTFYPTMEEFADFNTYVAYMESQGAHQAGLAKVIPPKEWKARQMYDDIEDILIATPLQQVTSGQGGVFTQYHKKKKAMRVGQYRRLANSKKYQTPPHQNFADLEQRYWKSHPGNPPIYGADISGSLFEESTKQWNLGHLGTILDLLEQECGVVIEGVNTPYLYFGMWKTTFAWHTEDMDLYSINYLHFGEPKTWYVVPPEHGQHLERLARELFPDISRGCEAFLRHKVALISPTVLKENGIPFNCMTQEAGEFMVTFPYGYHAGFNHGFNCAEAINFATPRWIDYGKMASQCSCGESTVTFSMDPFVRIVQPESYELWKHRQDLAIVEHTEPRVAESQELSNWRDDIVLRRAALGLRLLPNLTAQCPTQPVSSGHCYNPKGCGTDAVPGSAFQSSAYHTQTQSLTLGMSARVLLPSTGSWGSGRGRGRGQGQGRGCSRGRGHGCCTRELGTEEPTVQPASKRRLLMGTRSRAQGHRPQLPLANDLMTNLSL
Further: nearly all actives have a fitted effect of over 50% in size.
Potency means the concentration at half of the fitted maximal effect; tags describe the fitted curve by direction and shape.

Row | Structure (SMILES) | Potency
1 | O=C(/C=C/c1ccccc1)Nc1ccc2c(c1)C(=O)NC2=O | inconclusive: 35.5 µM [inhibitor, partial curve]
2 | O=C(Nc1cccc2c1C(=O)NC2=O)c1cccc(N2C(=O)CCC2=O)c1 | inconclusive: 28.2 µM [inhibitor, partial curve]
3 | COC(=O)c1ccc(C(=O)OC)c(NC(=O)CCc2ccc(C)o2)c1 | inconclusive: 31.6 µM [inhibitor, partial curve]
4 | COC1CCN(C(=O)CC2C(=O)NCCN2CC(C)(C)C)CC1 (stereo not drawn) | inconclusive: 31.6 µM [inhibitor, partial curve]
5 | Nc1nnc(SCC(=O)Nc2cc(C(F)(F)F)ccc2N2CCOCC2)s1 | inactive
6 | Cc1ccc(OCC(=O)NNC(=O)C2CCN(c3ncccn3)CC2)cc1 | inconclusive: 28.2 µM [inhibitor, partial curve]
7 | O=C(Nc1ccc2c(c1)OCO2)Nc1ccccn1 | inconclusive: 35.5 µM [inhibitor, single point]
8 | CCOC(=O)c1sc(NC(=O)c2ccc(S(=O)(=O)N(CC)CC)cc2)nc1C | inconclusive: 28.2 µM [inhibitor, partial curve]
9 | Cc1onc(-c2ccccc2)c1-c1csc(N/N=C/c2ccccc2)n1 | inconclusive: 31.6 µM [inhibitor, single point]
10 | Cc1ccc2nc(-c3cccc(NC(=O)c4ccc5c(c4)OCCO5)c3)oc2c1 | inconclusive: 25.1 µM [inhibitor, single point]
11 | O=C(O)c1cccc(NC(=S)NC(=O)c2ccc(-c3ccc(Cl)cc3)o2)c1 | inconclusive: 10 µM [inhibitor, partial curve]
12 | CCOC(=O)c1c(NC(=O)c2ccco2)sc2c1CCCC2 | inconclusive: 6.31 µM [inhibitor, single point]
13 | CCCCCOc1ccc(CSc2n[nH]c(C)n2)cc1 | inactive
14 | CCOC(=O)C1=C(C)N(c2ccc(OC)cc2)C(=O)/C1=C\c1ccc(O)c(OCC)c1 | inactive
15 | CS(=O)(=O)Nc1ccc([N+](=O)[O-])cc1Oc1ccccc1 | inconclusive: 35.5 µM [inhibitor, single point]
16 | O=C(c1ccc2c(c1)OCO2)N1CCN(c2ccccn2)CC1 | inconclusive: 35.5 µM [inhibitor, single point]
17 | NC(=O)c1cc[n+](CC2=C(C(=O)O)N3C(=O)[C@@H](NC(=O)C(c4ccccc4)S(=O)(=O)[O-])[C@H]3SC2)cc1 (stereo partly drawn) | inactive
18 | CCc1ccc(OCc2nnc(SCCN3CCOCC3)n2C)cc1 | inconclusive: 31.6 µM [inhibitor, single point]
